The campaign covered roughly 260,000 compounds. About 890 (0.34%) were called active. Inconclusive results, whose numbers are uncertain, are shown with a selection of clear calls. Calls come from the whole dose curve; as a rule, active = well fitted activation curve with a large enough effect; inconclusive = small, poorly fitted or top-dose-only effect; inactive = no such curve, though single readings can be large or run the other way. A potency beside an inconclusive call is a rough fit, not a confirmed value.
molecular target: Pyruvate kinase PKM (Homo sapiens) (UniProt P14618); assay: qHTS Assay for Activators of Human Muscle isoform 2 Pyruvate Kinase; conditions: purified PKM2, Kinase-Glo ATP luminescence; Potency: activation; activation: at 57.5 µM (top of the series), 0% is enzyme alone, no compound; note: nearly all actives have a fitted effect of over 55% in size
Method in brief: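 Purified hPK-M2 (>95%) run at intermediate activity with 0.1 mM ADP and 0.5 mM PEP in 50 mM imidazole pH 7.2, KCl, MgCl2; 1 h room temperature. ATP formed read by Kinase-Glo luminescence; normalized to uninhibited and no-enzyme controls.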
% is set by controls: 0 for no effect and ±100 for the full control effect; potency is the fitted concentration of half-maximal effect; tags give direction and shape of the fitted curve.

UniProt P14618, sequence (P14618 whole entry, looked up, canonical isoform): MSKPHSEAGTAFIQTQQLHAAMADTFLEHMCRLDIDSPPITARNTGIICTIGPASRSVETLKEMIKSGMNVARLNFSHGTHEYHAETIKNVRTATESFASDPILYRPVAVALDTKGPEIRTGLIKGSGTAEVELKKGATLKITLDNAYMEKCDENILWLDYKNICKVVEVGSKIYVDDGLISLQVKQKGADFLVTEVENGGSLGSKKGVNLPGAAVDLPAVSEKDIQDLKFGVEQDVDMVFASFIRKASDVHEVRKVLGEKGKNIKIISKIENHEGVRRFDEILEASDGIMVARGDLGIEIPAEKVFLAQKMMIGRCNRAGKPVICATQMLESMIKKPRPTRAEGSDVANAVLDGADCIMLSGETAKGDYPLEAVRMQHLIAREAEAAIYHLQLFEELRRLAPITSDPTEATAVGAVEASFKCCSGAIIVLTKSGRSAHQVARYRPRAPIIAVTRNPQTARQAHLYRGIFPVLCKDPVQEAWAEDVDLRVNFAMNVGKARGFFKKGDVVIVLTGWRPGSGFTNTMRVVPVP

activation, inactive:
NS(=O)(=O)c1ccc(NC(=S)NCc2cccs2)cc1 6.97%, CCOc1ccc(NC(=O)c2cc(SC)ccc2Cl)cc1 2.37%, COc1ccccc1NC(=S)N1CCN(c2cccc(C)c2C)CC1 -3.15% [at 11.5 µM, 0% is enzyme alone, no compound], COc1cccc(/C=c2\s/c(=C/C(=O)c3ccc(C)cc3)[nH]c2=O)c1OC -5.5%, O=C(Nc1cccc(F)c1)NC1CCCc2ccccc21 (stereo unspecified) -1.74%, Nc1c(/C=C2/C=CC(=O)C(O)=C2)c(=O)nc2sc(CC(=O)N3CCCCC3)nn12 8.25%, COC(=O)c1cccc(NC(=S)N2CCCCC2)c1 -4.28%, [O-]/C(=C(\C(=S)Nc1ccc(Cl)cc1)[n+]1ccccc1)c1ccc(OC(F)F)cc1 -0.32%, Cc1cc2n(n1)C(c1ccco1)Nc1ccccc1-2 (stereo unspecified) 2.26%, Cc1cccc(C)c1NC1=NC(=S)N(c2ccccc2)C12CCOC(C)(C)C2 (stereo unspecified) -0.012%, CCOc1ccc(C(=O)NN2C(=O)C3C4C=CC(O4)C3C2=O)cc1 (stereo unspecified) 5.44%, CCN1/C(=C\C(C)=O)Sc2ccc(OC)cc21 3.99%

Potency, active:
COc1cc(OC)cc(-c2nnc(Nc3nc4c(F)cccc4s3)o2)c1 7.08 µM, COc1ccc(S(=O)(=O)N2CCN(C(=O)COc3ccccc3)CC2)cc1 14.1 µM, CC(C)(C)c1ccc(CN2N=Nc3ccccc3S2(=O)=O)cc1 3.16 µM, O=S(=O)(Nc1ccc2ccccc2n1)c1ccc2c(c1)CCO2 11.2 µM, Cc1nnc(NC(=O)CSc2ccc(-c3cccnc3)nn2)s1 2.82 µM, Cc1ccc(CNC(=O)Cn2ccc3cc(S(=O)(=O)N4CCCC4)ccc32)o1 15.8 µM, COC(=O)[C@@]1(Cc2ccc(OC)cc2)[C@H]2c3cc(C(=O)N(C)C)n(Cc4ccc(C)o4)c3C[C@H]2CN1C(=O)c1ccccc1 8.91 µM, COC(=O)c1ccc(C(NC(=O)OCc2ccccc2)/C(I)=C/[C@@H](C)C(=O)NCc2ccc(C)o2)cc1 (stereo partly specified) 14.1 µM, NC(=O)CC(NC(=O)Cc1ccc(Cl)cc1)c1ccc(NCCc2ccccc2F)c([N+](=O)[O-])c1 (stereo unspecified) 3.98 µM

Potency, inconclusive:
COc1ccc(S(=O)(=O)N2CCN(c3nc4ccccc4nc3-n3nc(C)cc3C)CC2)cc1 17.8 µM [rising, partial curve], CCOc1c2ccc(C(=O)NC3CCCc4ccccc43)cc2nn1C (stereo unspecified) 1.41 µM [rising, full curve], COc1ccc(OC)c(S(=O)(=O)Nc2ccc(O)c3ccccc23)c1 2.24 µM [rising, full curve], Cc1cccc(NC(=S)N(CCN2CCOCC2)Cc2cc3cc4c(cc3[nH]c2=O)OCCO4)c1 39.8 µM [rising, single point], CCOC(=O)C1(CC2CCCCO2)CCN(Cc2cccnc2)CC1 (stereo unspecified) 39.8 µM [rising, single point], CCc1ccccc1Nc1nn2c(=O)c3ccc(C(=O)NCc4ccccn4)cc3nc2s1 39.8 µM [rising, single point], Cc1cccc(NC2=NC3(CCCCC3)N=C(N)N2)c1C 14.1 µM [rising, partial curve], O=c1cc(-c2ccccc2Cl)oc2c(NS(=O)(=O)c3cccs3)ccc(O)c12 28.2 µM [rising, single point], CC(C)Nc1nnc(SCc2cc(=O)n3ccsc3n2)s1 35.5 µM [rising, single point], O=C(/C=C/c1ccccc1[N+](=O)[O-])Nc1cccnc1 25.1 µM [rising, partial curve], COCCNC(=S)N1CCN(c2nc3ccccc3s2)CC1 25.1 µM [rising, partial curve], CCOC(=O)c1c(C)[nH]c(C(=O)COC(=O)c2ccc(O)cc2O)c1C 3.98 µM [rising, single point], Cc1nc([N+](=O)[O-])cn1CC(O)c1ccc(-c2ccccc2)cc1 (stereo unspecified) 3.98 µM [rising, single point], O=C(NCc1ccco1)C1CCN(S(=O)(=O)c2cccc3cccnc23)CC1 0.112 µM [rising, full curve, poor fit], O=C(NC1CCC(NC(=O)C(F)(F)C(F)F)CC1)C(F)(F)C(F)F (stereo unspecified) 31.6 µM [rising, single point], CCN(CC)S(=O)(=O)c1cc(C(=O)Nc2ccc(Cl)cn2)ccc1C 0.562 µM [rising, single point], COc1cccc(C(=O)N2CCN(S(=O)(=O)Cc3ccccc3)CC2)c1 11.2 µM [rising, full curve, poor fit], N/C(=N\OC(=O)CCCN1C(=O)c2ccccc2C1=O)c1ccccn1 39.8 µM [rising, single point], CCOC(=O)c1c(-c2ccc(C)o2)csc1NC(=S)NC(=O)N(C)C 31.6 µM [rising, single point], N#CC1=C(SCc2ccccc2)NC2=C(C(=O)CCC2)C1c1ccc2c(c1)OCO2 (stereo unspecified) 15.8 µM [rising, partial curve], COc1ccccc1CC(=O)NNS(=O)(=O)c1ccc([N+](=O)[O-])cc1 39.8 µM [rising, single point], O=C1c2cccc3c(O)ccc(c23)C(=O)N1Cc1ccco1 11.2 µM [rising, partial curve, poor fit], Clc1ccc(-c2nnc(SCc3ccon3)o2)c(Cl)c1 28.2 µM [rising, single point], CN1CCC(N(CCc2ccccc2)C(=O)CCC(=O)O)CC1 0.316 µM [rising, full curve, poor fit], CSC1=NCCN1S(=O)(=O)c1ccc2ccccc2c1 31.6 µM [rising, single point]
